The campaign covered roughly 150,000 compounds. About 540 (0.36%) showed an effect of 50% or more. This is one part of the list.

The record followed here is ChEMBL document CHEMBL4888484, “Replenishing the malaria drug discovery pipeline: Screening and hit evaluation of the MMV Hit Generation Library 1 (HGL1) against asexual blood stage Plasmodium falciparum ,using a nano luciferase reporter read-out” (2022).

This experiment relates to Plasmodium falciparum. As to the kind of experiment: Primary screen in NF54 nanoGlo assay, in single point, at 2uM, 72h; a lower Z score goes with more inhibition. Conditions: timepoint 72 hour. Format: functional, Erythrocyte.
Regarding `Cn1nncc1NC(=O)N1CC(=O)NC[C@H]1c1ccccc1`, the “% Inhibition” value came to 2% and the Z score is reported as -0.2.
In the case of `CCCCN([C@@H](C)c1ccccc1)S(=O)(=O)CC#N`, the “% Inhibition” value is on record as 8% and the Z score is -1.31.
As to `O=C(Nc1nn(Cc2ccccc2)cc1Cl)c1cc(-c2ccc(OC(F)F)cc2)[nH]n1`, the “% Inhibition” value turned out to be 38% and the Z score is given as -5.18.
Turning to `COCCN(Cc1ccsc1)S(=O)(=O)Cc1cccc(C)c1`, the “% Inhibition” value is -2% and the Z score is 0.45.
With `NC(=O)c1cccnc1N1CCO[C@@H](Cc2ccccc2)C1`, the “% Inhibition” value is reported as -10% and the Z score turned out to be 0.96.
With `Cc1nc(C)c([C@H](C)NC(=O)CCc2ccc(C(=O)O)cc2)s1`, the “% Inhibition” value is -7% and the Z score is 0.97.
Consider `CCCS(=O)(=O)N[C@@H](C)C(=O)NCc1cccnc1OC`, for which the “% Inhibition” value is given as 1% and the Z score is given as -0.16.
As to `O=C(c1cncc(O)n1)N1C[C@@H]2CC[C@@H](C2)C1`, the “% Inhibition” value is listed as -10% and the Z score is 1.79.
For the compound `O=C(Nc1nc2c(s1)CN(C(=O)c1ccc(Cl)s1)CC2)[C@@H]1CCCO1`, the “% Inhibition” value is recorded as -12% and the Z score is listed as 1.7.
Taken in the same sequence, the figures for `COc1ccc(CN([C@@H](C)C2CC2)S(=O)(=O)N2CCCC2)cc1` were -4% and 0.57.
As to `Cc1ccc(C)c(-n2c(=O)c3sccc3n(CC(=O)Nc3cc(C)on3)c2=O)c1`, the “% Inhibition” value stood at 6% and the Z score is recorded as -0.86.
Regarding `Cn1cc(CCc2nc(-c3ccccc3)no2)cn1`, the “% Inhibition” value was 0% and the Z score stood at 0.02.
As for `O=C(C[C@H]1CCN(S(=O)(=O)c2ccc3c(c2)OCCO3)C1)NCc1ccccc1`, the “% Inhibition” value is on record as -7% and the Z score was found to be 1.37.
For `O=S(=O)(C[C@H]1CCCCO1)Nc1cc(F)c(F)cc1F`, the “% Inhibition” value is on record as -7% and the Z score is on record as 0.77.
Taken in the same sequence, the figures for `N#Cc1cccc(CN2CCC(CNC(=O)c3cnccn3)CC2)c1` were -6% and 1.23.
`O=C(C1CCN(S(=O)(=O)c2ccc3c(c2)CCC3)CC1)N1CCC1`: the “% Inhibition” value is -13% and the Z score stood at 2.45.
Take `Cc1c(C(=O)OC(C)C)nnn1CC1CCCC1`: the “% Inhibition” value is recorded as -12% and the Z score was 1.97.
As for `COc1cccc(C(=O)N2CCN(C(=O)c3cc4ccsc4n3Cc3ccccc3C)C[C@@H]2C)c1`, the “% Inhibition” value turned out to be 12% and the Z score is given as -1.75.
Taken in the same sequence, the figures for `C[C@]1(NC(=O)c2nc3ncc(Br)cn3n2)CCOC1` were 3% and -0.31.
As for `O=C(O)c1csc(-n2nc(C(F)F)cc2-c2ccco2)n1`, the “% Inhibition” value is recorded as -37% and the Z score was found to be 4.34.
Turning to `CCN(CC)[C@H](CNC(=O)c1cccc(S(=O)(=O)N2CCCCC2)c1)Cc1ccccc1`, the “% Inhibition” value is on record as 12% and the Z score was -1.58.
In the same order, the values of `CO[C@H]1CN(C2CCN(C(=O)c3n[nH]c4ccccc34)CC2)C12CCOCC2` are -11% and 1.92.
In the same order, the values of `COC(=O)[C@H](NC(=O)Cc1ccncc1)c1cccc(C)c1` are 1% and -0.15.
For `Cc1nc(-c2ccco2)ccc1C(=O)N[C@@H](C)c1nnnn1C`, the “% Inhibition” value is -12% and the Z score amounted to 1.8.
With `Cc1ccc(CN2c3ccc(C)cc3OC[C@@H]2CC(=O)Nc2nccs2)cc1`, the “% Inhibition” value is -2% and the Z score was found to be 0.34.
As to `COc1ccccc1NS(=O)(=O)c1ccc(Cl)c(NC(=O)[C@H](Cc2ccccc2)N2C(=O)c3ccccc3C2=O)c1`, the “% Inhibition” value is recorded as 16% and the Z score is given as -2.5.
Take `CNC(=O)[C@H]1CN(C)C[C@@H]1NS(=O)(=O)c1ccccc1Cl`: the “% Inhibition” value was -7% and the Z score came to 0.92.
Taken in the same sequence, the figures for `CCN1C(=O)CN(C(=O)c2ccccn2)CC12CCOCC2` were -4% and 0.56.
For `CC(C)C(=O)c1ccc(C(C)C(=O)NC2(CCO)CCOC2)cc1` (centres undefined), the “% Inhibition” value is listed as -8% and the Z score was determined as 0.9.
Taken in the same sequence, the figures for `O=C1CC2(CCCCC2)Oc2cc(OCC(=O)N3CCOCC3)ccc21` were -3% and 0.3.
In the case of `O=C(NC[C@H]1COCCO1)c1ccc(COc2ccc3ccccc3c2)o1`, the “% Inhibition” value is -8% and the Z score is on record as 0.8.
In the case of `Cc1nn(CCC#N)cc1Br`, the “% Inhibition” value worked out at 8% and the Z score is listed as -0.95.
Regarding `O=C(N1CCCC1)N1CC[C@H]2[C@H](CCC(=O)N2CCc2ccccc2)C1`, the “% Inhibition” value was -1% and the Z score is reported as 0.14.
Consider `Cc1cc(C)c2nc(N3CCC(C(=O)NCCCN4CCOCC4)CC3)sc2c1`, for which the “% Inhibition” value is -2% and the Z score was determined as 0.25.
With `CC[C@](C)(NCc1ncc(-c2cccs2)o1)c1nccs1`, the “% Inhibition” value is recorded as -10% and the Z score amounted to 1.08.
Turning to `Cc1ccc(-c2cc3c(=O)n(Cc4noc(CN5CCCC5)n4)ccn3n2)cc1`, the “% Inhibition” value is -7% and the Z score is recorded as 0.88.
Regarding `O=c1c(C(F)(F)F)cccn1Cc1csc(-c2ccccc2)n1`, the “% Inhibition” value is -3% and the Z score is listed as 0.44.
For the compound `O=C(c1ccccc1)N1CC[C@H](c2nnc(-c3ccncc3)o2)C1`, the “% Inhibition” value was -1% and the Z score is 0.22.
In the case of `Cc1csc(CNC(=O)[C@]2(c3ccccc3)CCC(=O)NC2)c1`, the “% Inhibition” value came to 2% and the Z score was -0.33.
In the same order, the values of `Cc1ccc2nc3c(n2c1)[C@@H](c1cc2cccc(C)c2nc1O)CC(=O)NC3` are 4% and -0.84.
For the compound `CC(C)[C@@H]1CN(C(=O)CCC(=O)N2CCC(O)CC2)c2ccccc21`, the “% Inhibition” value is on record as -1% and the Z score was 0.11.
In the same order, the values of `O=C(NCc1ccn(C2CCCC2)n1)c1cc[nH]n1` are 6% and -0.72.

The term % Inhibition denotes the change of the read-out against control, counted positive when it falls.
